The experiment deals with T1, Mint1, amino acids 447-758, fused to the Gal4 DNA binding domain (bait) (yeast, UniProt P04386 1-147; Q02410 447-758).
T1 construct: Yeast two-hybrid bait in pGBTQ; also called X11 alpha
The experiment is described as follows: yeast two-hybrid, Example 8: bait Mint1 aa 447-758, prey aa 364-589.

The results in this text go back to patent US20020106773A1 (MYRIAD GENETICS, published 2002).

B1: KIAA0427, amino acids 364-589, fused to the Gal4 activation domain (prey) (other, yeast;human, UniProt P04386 768-881, looked up, not shown: small tags and cut ends)
chain: ANFNQSGNIADSSLSFTFTNSSNGPNLITTQTNSQALSQPIASSNVHDNFMNNEITASKIDDGNNSKPLSPGWTDQTAYNAFGITTGMFNTTTMDDVYNYLFDDEDTPPNPKKETTTPQQNKMDKLIEILNSMRNNSSDVDTKLTTFMEEAQNSTNSEEMLGEIVRTIYQKAVSDRSFAFTAAKLCDKMALFMVEGTKFRSLLLNMLQKDFTVREELQQQDVERWLGFITFLCEVFGTMRSSTGEPFRVLVCPIYTCLRELLQSQDVKEDAVLCCSMELQSTGRLLEEQLPEMMTELLASARDKMLCPSESMLTRSLLLEVIELHANSWNPLTPPITQYY
notes: Yeast two-hybrid prey from the human brain cDNA library in pACT2
For B1, the binding result is “binds”.
